# According to the supplement of paper PMC3334620:
# Whole data set: some 33,000 sequences, median “E-score (-0.5 to 0.5)” near -0.016, cut for the highest 2% near 0.32. The list shows a part of the results.
# Molecular target: T1, Stp1 (UniProt B3LFK1)
# T1 sequence: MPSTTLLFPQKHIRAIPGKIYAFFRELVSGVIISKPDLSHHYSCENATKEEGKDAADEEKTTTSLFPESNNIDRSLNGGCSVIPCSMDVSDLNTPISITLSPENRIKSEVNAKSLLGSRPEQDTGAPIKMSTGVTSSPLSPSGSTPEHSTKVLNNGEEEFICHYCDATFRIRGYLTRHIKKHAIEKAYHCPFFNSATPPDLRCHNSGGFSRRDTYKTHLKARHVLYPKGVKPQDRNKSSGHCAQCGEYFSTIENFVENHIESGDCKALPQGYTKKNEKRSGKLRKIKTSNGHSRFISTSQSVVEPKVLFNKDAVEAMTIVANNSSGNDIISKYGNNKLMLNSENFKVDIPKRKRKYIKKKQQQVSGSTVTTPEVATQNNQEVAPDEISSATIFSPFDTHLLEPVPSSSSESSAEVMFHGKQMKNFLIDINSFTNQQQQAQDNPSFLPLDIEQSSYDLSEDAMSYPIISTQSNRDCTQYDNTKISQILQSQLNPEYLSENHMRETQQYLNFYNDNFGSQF
# Experiment: PBM E-score (8-mer binding enrichment) (E-score (-0.5 to 0.5)); higher = stronger / more preferred TF binding; most listed sequences are background and not binding sites
# Conditions: protein concentration: 200 nM; construct: GST-full length
# Protocol: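 Universal 'all 10-mer' protein binding microarrays (Agilent AMADID 015681) probed with GST-tagged S. cerevisiae TFs (full-length or DBD) made by in vitro transcription/translation (PURExpress), about 100-200 nM. Bound TF was detected with fluorescent anti-GST. Each ungapped 8-mer (which stands for itself and its reverse complement) is scored by the PBM enrichment score (E-score), a modified Wilcoxon-Mann-Whitney statistic from -0.5 to +0.5, computed with the Universal PBM Analysis Suite. Scale: above 0.35 generally sequence-specific binding.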
row,Sequence,PBM E-score
1,CTTTTTCC,0.0308
2,CCGCCACA,0.0206
3,AGCGAAAC,0.191
4,ACACTCTC,0.0134
5,CGCCAACC,-0.0271
6,GGTAGAAA,0.175
7,GCATCTCC,0.0358
8,GATTTCGC,0.267
9,GAGTTTCA,-0.0138
10,CCACGCGC,0.0705
11,CCGTTGTA,0.133
12,GCGTGTAC,0.0532
13,AATATCGC,0.0624
14,CGCGATTA,0.0152
15,CCCAAACA,-0.00715
16,AGTGACCC,-0.267
17,ATTGATCA,0.0447
18,AAGATTTA,0.0761
19,CGCCTAAA,-0.0442
20,AGGTCAGC,-0.156
21,CCCATGCG,-0.0914
22,TATATCAA,0.191
23,GCAGCTAC,-0.007
24,CAAGTTAG,-0.00852
25,CTCTAAAA,0.0923

row,Sequence,PBM E-score
1,AATACTTG,0.0331
2,ATAGATCG,0.00583
3,CACGCAGC,-0.0588
4,AGTACGTC,-0.0637
5,CAACCACC,-0.19
6,GGCTCCCA,-0.152
7,ATGGAGGG,-0.311
8,ATTGCCGC,0.418
9,GCCGTCGA,0.278
10,TCACCCAA,-0.00808
11,CGTTCTAA,0.0542
12,AAGATGGG,0.0482
13,CGGTACAA,0.08
14,AAAATATC,0.172
15,AGAATAAC,-0.00738
16,GCTGATCC,-0.116
17,ACCTGAAC,-0.223
18,AGTCCATG,-0.221
19,AGGCTGGC,-0.378
20,CGGTAGAG,-0.163
21,CGGCCCGC,-0.0277
22,AGAAGCCT,0.0299
23,GTGGATAA,-0.116
24,GAGGTCGA,-0.099
25,AAACAACG,-0.00102

row,Sequence,PBM E-score
1,AGGCCTTG,-0.201
2,GAGCTGAC,-0.00082
3,CGCGGCCC,0.349
4,TCATACGA,0.104
5,CTTTCATC,0.0152
6,ACCCATGG,-0.102
7,CGATATTA,0.0913
8,GCAGAAAA,0.171
9,CCATGAGG,-0.0913
10,CGGTTTAA,-0.109
11,CGTTAGGA,0.0333
12,CATCAGAC,0.0335
13,CACTATTA,-0.0147
14,ACGCCCAT,-0.0727
15,GCCTTAAA,0.131
16,ACATGTGG,0.0769
17,AAGTTGGA,0.0716
18,CGGAAGAC,0.0382
19,CTTTAGCA,-0.213
20,CACGGTCC,-0.109
21,CCACTTCA,-0.0855
22,ACCGTGCA,-0.0437
23,CCAGAATA,0.0464
24,AAAAACTC,0.00309
25,AACATCTA,-0.0371

row,Sequence,PBM E-score
1,CCAACTAA,-0.0424
2,GTAGAGAA,0.0253
3,AGCTCCCA,-0.206
4,ATTACTGC,0.0815
5,ATTGAAAA,0.159
6,GCTAATTA,0.137
7,ATCCCGAT,-0.157
8,ATCAAACG,0.287
9,GCGATCGA,0.208
10,ACTTCGGC,0.0407
11,GTGGTAAA,-0.0347
12,GATTCTGC,0.241
13,ACCCTTCC,-0.193
14,CAGATTCA,-0.126
15,ACGTTGCG,0.0401
16,CCACAAAA,0.0619
17,AGGAAATC,0.0354
18,ACTATAAT,0.122
19,CACTATGA,-0.207
20,CCCAACAC,-0.133
21,AGACTCTG,-0.222
22,AAAAATGT,0.0261
23,AAATCATC,-0.0786
24,CCTGTAAC,0.0142
25,GCCATAGC,0.0522

row,Sequence,PBM E-score
1,ACGTGTGC,-0.128
2,AAAGTCGG,-0.189
3,AGAATTGA,0.0122
4,GTTAGTGA,-0.00961
5,CACGTGCC,0.28
6,AGTTAGAG,-0.0464
7,CTGTTTCC,-0.283
8,CCAAGCAA,-0.103
9,AGAACAAG,0.0914
10,AATGATCC,-0.0358
11,AAGAGGCA,0.363
12,AAGTAGCT,-0.303
13,GTTGTATA,0.0897
14,ACTCGAGG,-0.0841
15,AGAAAAAT,0.0941
16,CCTTGCCG,0.178
17,GACAGCGC,0.203
18,AGCGGAAC,-0.0267
19,GGACAATA,0.0607
20,ATAGCGGA,-0.197
21,CTAGCTTA,-0.0324
22,CTGCGACC,-0.243
23,AACGCCGA,0.292
24,GACGGAAC,-0.0397
25,TTATCCAA,0.113

row,Sequence,PBM E-score
1,AGGTCTGA,0.021
2,AGCAGTGG,-0.0995
3,CCTGCTAC,-0.0762
4,ACAGAACA,0.0388
5,ACTCCGCA,-0.124
6,CCCTGATC,-0.255
7,CCCATCAC,-0.283
8,CGAGAAGC,-0.112
9,CTGTCATA,0.0409
10,ACCGGTCG,-0.272
11,AATGGGCC,-0.0293
12,ATCACAGC,0.0718
13,CCGCTAAC,0.0995
14,GAAACAGC,-0.0001
15,GCGGAGTA,-0.192
16,ACCCGGGA,-0.144
17,CACAATCG,0.0953
18,CCATGGCA,0.0885
19,TAGGCGCA,0.155
20,AATCACAC,0.137
21,GAAGACGC,-0.00189
22,CACCCCGG,-0.286
23,GACGATTA,0.0173
24,CCGACCCG,-0.086
25,GGAGTTAC,-0.0897

row,Sequence,PBM E-score
1,CAGCGGAA,-0.135
2,CAATATCA,0.0533
3,GTCAGAAC,-0.094
4,AGGTTACT,-0.139
5,CTCAACAG,-0.0244
6,CCGGGTGC,-0.0828
7,CAAATGTA,0.135
8,CTATCTTA,0.0702
9,GCTAAATA,0.172
10,GCACGCCC,0.0356
11,GCCCATGA,-0.0742
12,CTAAGCTC,-0.0659
13,ATGGTGCG,-0.0219
14,ACGGCCCT,0.275
15,CACTTAAG,0.248
16,GAGTTTGC,0.0662
17,ATATTTGA,0.0238
18,ATGCCTTA,0.236
19,AGTCACCA,-0.306
20,AATGGCAG,0.0303
21,ACATAACA,0.132
22,AGGTGACA,-0.0681
23,GGTCCTCA,-0.224
24,AATCATGT,-0.0694
25,ACACATCA,-0.115

row,Sequence,PBM E-score
1,ACAGACCG,-0.158
2,GAGGGGAC,-0.204
3,CATTACCG,-0.0915
4,CGATTAAC,0.111
5,CCCGTCTA,-0.0264
6,CATGAGTA,0.0433
7,AGCTTCGA,-0.146
8,AGGATTCG,-0.0348
9,ACTTAAGT,0.131
10,ATTGTGCG,0.161
11,ACAGAGCG,-0.124
12,TCTGGACA,-0.198
13,ACTGTCTC,-0.127
14,CTAAAGTA,-0.151
15,GGTGTACA,-0.0392
16,AACGCCTC,0.225
17,CCAGTAAC,-0.183
18,CCAATTTA,0.214
19,AGAATGGA,1e-05
20,CTTCCCCA,-0.202
21,ATTGCCGA,0.177
22,CTATATAG,-0.0268
23,AGCCTGCA,-0.0863
24,TTCATGAA,0.095
25,GCGTGTGA,0.0615

row,Sequence,PBM E-score
1,CTGTGTGA,0.154
2,CATTGCGG,0.158
3,AACGACCT,-0.072
4,CAGGGGCG,-0.115
5,ATCGCAAG,-0.0187
6,CGCTTATC,-0.00336
7,ACAACCTC,0.0654
8,ACCCGTAG,-0.36
9,CATGGGGG,-0.316
10,TGCCGGCA,0.195
11,AAAGCAGG,-0.101
12,GGTTGGTA,0.138
13,GCATCCCA,-0.163
14,GGAGTAAC,-0.0602
15,AGCGATCA,-0.165
16,CGCTACCG,-0.0922
17,GGTCTCTA,-0.283
18,AGCATAGC,-0.286
19,CAGCGCGA,-0.0618
